The source of these data is the supplement of paper PMC10369915.

Sequences and labels used below:
B1: BRD4_Y599 (peptide)
chain: KPPPTYESEEE
B2: BTK_Y511_C506Y_YF (peptide)
chain: FEAMEYLESKQ
B3: C5orf42_Y1451 (peptide)
chain: PGVDRYSLGTS
B4: C1QBP_Y188_C186S (peptide)
chain: VLDSHYPEDEV
B5: BTK_Y361_H364P (peptide)
chain: PELINYHQPNS
B6: BTNL2_Y91 (peptide)
chain: MQMEEYRGWVE
B7: BTK_Y511_C506Y (peptide)
chain: YEAMEYLESKQ
B8: BMPR1A_Y458 (peptide)
chain: YQLPYYNMVPS
B9: CAD_Y735_Y735C (peptide)
chain: EPSVDCCVVKI
B10: BSCL2_Y213_A212P (peptide)
chain: QLYGPYLRIHA
B11: BTK_Y617_P619S (peptide)
chain: QGLRLYRSHLA
B12: BRCA2_Y2624_W2626C_YF (peptide)
chain: WVFNHYRCIIW
B13: BTK_Y40_Y39S (peptide)
chain: HKLSSYEYDFE
B14: CALCOCO2_Y358 (peptide)
chain: FNSLPYQVPTS
B15: CACNA1C_Y1757 (peptide)
chain: GNHVSYYQSDG
B16: BRIP1_Y916 (peptide)
chain: VTSLKYSTSPY
B17: BTK_Y511_L512P (peptide)
chain: CEAMEYPESKQ
B18: C1QBP_Y188 (peptide)
chain: VLDCHYPEDEV

The other results are listed elsewhere or left out. Rule as the data show it: active = 3.2 or more and inactive = the rest. Only a few entries rise above the background.
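Also: displayed peptides selected on beads carrying the immobilized SH2 domain, with library peptides lacking any tyrosine serving as negative controls.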

The first test addresses SHP2 C-SH2 domain E139D. The test is described as follows: enrichment score (SH2-bound / input frequency) (ratio); bacterial display of known human phosphotyrosine sites (pTyr-Var adds point mutants) read by sequencing; higher = stronger binding; tyrosines were phosphorylated by kinases first. As to conditions: peptide library: pTyr-Var.
As to B1, the enrichment score was inactive: 0.639.
Still for that read-out and setting: the figure for B2 is inactive: 0.81; for B3 it is inactive: 0.609.
Regarding B4, the enrichment score was inactive: 0.609.
For the molecule B5, the enrichment score was inactive: 0.554.
As for B6, the enrichment score was inactive: 0.846.
For the molecule B7, the enrichment score was inactive: 0.781.
Still for that read-out and setting: the figure for B8 is active: 3.5; for B9 it is inactive: 0.662; for B10 it is inactive: 1.55.
For B11, the enrichment score is inactive: 1.4.
For the molecule B12, the enrichment score is inactive: 2.24.
Take B13: the enrichment score was inactive: 0.54.
In the case of B14, the enrichment score was inactive: 0.963.
Turning to B15, the enrichment score is inactive: 0.572.
Same read-out and setting: next, B16: inactive: 0.646; B17: inactive: 0.839; B18: inactive: 0.745.

Another test has as its target SHP2 C-SH2 domain wild-type. The description is as above. The following applies: peptide library: pTyr-Var.
For B1, the enrichment score was inactive: 0.522.
In the case of B2, the enrichment score was inactive: 0.958.
For the molecule B3, the enrichment score is inactive: 0.604.
With B4, the enrichment score was inactive: 0.636.
Consider B5, for which the enrichment score was inactive: 0.565.
The same measure, in the same setting: the figure for B6 is inactive: 0.685; for B7 it is inactive: 0.884; for B8 it is active: 3.63.
Still for that read-out and setting: the figure for B9 is inactive: 0.706; for B10 it is inactive: 1.89; for B11 it is inactive: 1.15.
For B12, the enrichment score is inactive: 2.93.
Still for that read-out and setting: the figure for B13 is inactive: 0.528.
For the molecule B14, the enrichment score is inactive: 0.679.
In the case of B15, the enrichment score was inactive: 0.525.
For B16, the enrichment score was inactive: 0.558.
With B17, the enrichment score is inactive: 0.833.
Same read-out and setting: the figure for B18 is inactive: 0.641.

The next test addresses SHP2 N-SH2 domain L43F. The description is as above. The following applies: peptide library: pTyr-Var.
Take B1: the enrichment score was inactive: 0.431.
The same measure, in the same setting: the figure for B2 is inactive: 0.829; for B3 it is inactive: 0.457.
As to B4, the enrichment score was inactive: 0.604.
Take B5: the enrichment score was inactive: 0.769.
Consider B6, for which the enrichment score was inactive: 0.889.
Regarding B7, the enrichment score was inactive: 0.701.
Still for that read-out and setting: next, B8: active: 3.99; B9: inactive: 0.715; B10: inactive: 2.13.
As to B11, the enrichment score is inactive: 1.14.
On to B12, for which the enrichment score was inactive: 2.57.
On the same count and under the same terms, the figure for B13 is inactive: 0.39.
Same read-out and setting: next, B14: inactive: 0.676.
On to B15, for which the enrichment score is inactive: 0.52.
The same measure, in the same setting: next, B16: inactive: 0.654.
On to B17, for which the enrichment score was inactive: 0.885.
Take B18: the enrichment score was inactive: 0.692.

The target of the next test is SHP2 N-SH2 domain T42A. The description is as above. As to conditions: peptide library: pTyr-Var.
With B1, the enrichment score was inactive: 0.344.
As for B2, the enrichment score was inactive: 0.622.
As for B3, the enrichment score is inactive: 0.489.
On to B4, for which the enrichment score is inactive: 0.646.
As for B5, the enrichment score is inactive: 0.654.
On the same count and under the same terms, next, B6: inactive: 0.876.
On the same count and under the same terms, next, B7: inactive: 1.07.
For B8, the enrichment score is active: 5.21.
In the case of B9, the enrichment score is inactive: 0.597.
Take B10: the enrichment score was inactive: 1.95.
As to B11, the enrichment score is inactive: 1.41.
Turning to B12, the enrichment score was inactive: 2.26.
Same read-out and setting: the figure for B13 is inactive: 0.378; for B14 it is inactive: 0.801; for B15 it is inactive: 0.593.
In the case of B16, the enrichment score was inactive: 0.455.
The same measure, in the same setting: the figure for B17 is inactive: 0.775.
On the same count and under the same terms, next, B18: inactive: 0.705.

The next test concerns the target SHP2 N-SH2 domain T52S. The test is described as above. As to conditions: peptide library: pTyr-Var.
Turning to B1, the enrichment score is inactive: 0.485.
Take B2: the enrichment score is inactive: 0.876.
As to B3, the enrichment score was inactive: 0.641.
Same read-out and setting: next, B4: inactive: 0.599; B5: inactive: 0.519.
As for B6, the enrichment score is inactive: 0.73.
With B7, the enrichment score is inactive: 0.639.
With B8, the enrichment score is active: 4.68.
For B9, the enrichment score is inactive: 0.778.
On the same count and under the same terms, next, B10: inactive: 2.06.
The same measure, in the same setting: next, B11: inactive: 1.04; B12: inactive: 2.68; B13: inactive: 0.5.
Consider B14, for which the enrichment score is inactive: 0.606.
B15: the enrichment score is inactive: 0.672.
The same measure, in the same setting: next, B16: inactive: 0.596; B17: inactive: 0.672.
Consider B18, for which the enrichment score is inactive: 1.06.

Another test addresses SHP2 N-SH2 domain wild-type. The description is as above. As to conditions: peptide library: pTyr-Var.
Regarding B1, the enrichment score is inactive: 0.508.
For B2, the enrichment score was inactive: 1.03.
Consider B3, for which the enrichment score is inactive: 0.453.
Still for that read-out and setting: next, B4: inactive: 0.635; B5: inactive: 0.858.
With B6, the enrichment score is inactive: 0.776.
Consider B7, for which the enrichment score was inactive: 0.737.
Consider B8, for which the enrichment score is inactive: 3.09.
On to B9, for which the enrichment score is inactive: 0.624.
In the case of B10, the enrichment score is inactive: 1.35.
Regarding B11, the enrichment score was inactive: 1.04.
For B12, the enrichment score is inactive: 2.02.
Take B13: the enrichment score is inactive: 0.707.
With B14, the enrichment score is inactive: 0.688.
Same read-out and setting: next, B15: inactive: 0.562.
Still for that read-out and setting: the figure for B16 is inactive: 0.781; for B17 it is inactive: 0.975; for B18 it is inactive: 0.761.
